Results published in PubChem BioAssay AID904 (National Center for Advancing Translational Sciences (NCATS), 2007).
In all, about 55,000 compounds went through this assay and about 530 (0.96%) were called active. Inconclusive results, whose numbers are uncertain, are shown with a selection of clear calls. Calls follow the shape of the dose curve; as a rule, active = well fitted cell-killing curve with a large enough effect; inconclusive = small, poorly fitted or top-dose-only effect; inactive = no such curve, though single readings can be large or run the other way. A potency beside an inconclusive call is a rough fit, not a confirmed value.

Test: qHTS Screen for Compounds that Selectively Target Cancer Cells with p53 Mutations: Cytotoxicity of p53 Null Cells at the Nonpermissive Temperature; also: nearly all actives have a fitted effect of over 50% in size;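 as to activity, negative = cell killing: 0% = DMSO only and -100% = full killing by 100 µM tamoxifen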
Conditions: H1299 p53-null (neo) cells, 39C, ATPlite viability, 24 h; activity, negative = cell killing: at 46.1 µM (top of the series)
Excerpt: NIH Chemical Genomics Center [NCGC] NIH Molecular Libraries Screening Centers Network [MLSCN] MLSCN Grant: 1 X01 MH079844-01 Assay Submitter (PI): Dr. SUN, YI, University of Michigan NCGC Assay Overview: Synthetic Lethal Screen for Compounds to Kill Cancer Cells with p53 Mutation. Tumor suppressor gene p53 serves as a major cellular barrier against tumorigenesis. […] The goal of this screening is to identify small molecule probes that selectively kill cancer cells with mutations in p53. This screening was carried out using two lines of H1299 lung cancer cells. The H1299-p53 A138V line express a temperature sensitive p53 mutant (p53ts) in which the mutant p53 protein (A138V) is in the mutant confirmation when grown at 39C (the nonpermissive temperature) and in the wild type conformation when grown at 32C (the permissive temperature). A H1299-neo line (p53 null) grown at both 39C and 32C were used as counter-screens to filter out false positive associated with temperature shifting. The small molecular compounds that selectively target mutant p53-containing cancer cells were selected as candidate probes for further study. A cytotoxicity assay based on the measurement of ATP contents in cells was used in this screen. Concentration-responses of all the compounds in the library collection were determined in qHTS using the cell lines and temperature conditions as above.
NCGC Assay Protocol Summary: Both the H1299-p53A138V and H1299-neo cell lines were provided by Dr.Yi Sun, a PI at the University Michigan. The cells were maintained and cultured at 37C. The resuspended frozen cells were used to plate the cells in the 1536-well assay plates at a density of 600 cells per well in 5 ul medium. The assay plates with the cells were incubated at 37C for 16 to 30 hours before the experiments. The library compounds in DMSO solution were added to the cells in assay plates and incubated 24 hours at 39C (for mutant p53 conformation) or 32C (for normal p53 conformation as control). An ATP_lite assay kit (PerkinElmer) was used to determine the cell viability. Tomaxifen (100uM) was used as the positive control for cell killing. Data were normalized to the controls for basal activity (DMSO only) and 100% killing (100uM tamoxifen). AC50 values were determined from concentration-response data modeled with the standard Hill equation. P53 assay protocol: 1. Reagent; 5 uL H1299-p53A138V or H1299-neo cell cells/well 2. Time; overnight; 37C incubation 3. Compounds; 23 nL; 5.9 nM to 46 uM 4. Controls; 23 nL; Tamoxifen 100 uM 5. Time; 24 hr; 39C incubation 6. Reagent; 3 uL; ATP_Lite reagent 7. Time; 20 min; Room Temperature 8. Detection; Luminescence; Viewlux plate reader Keywords: p53, synthetic lethal, cancer, cell viability, cytotoxicity, H1299 cell line, luminescence, MLSMR, MLSCN, NIH Roadmap, qHTS, NCGC
Potency is read from the fitted curve at half-maximal effect; tags tell the direction and shape of the fitted curve.

| Structure (SMILES) | Potency | activity, negative = cell killing |
| --- | --- | --- |
| COc1cccc(CNC(=O)c2sc3ncccc3c2-n2c(C)ccc2C)c1OC | inconclusive: 35.5 µM [cytotoxic, single point] |  |
| O=C(Nc1onc2c1CCCC2)c1ccccc1 | inconclusive: 15.8 µM [cytotoxic, single point] |  |
| CC1CCN(c2nc3ccc(C(=O)NC(C)C)cc3s2)CC1 |  | inactive: -21.5% |
| COc1ccc(Cc2nc3ccccc3n2Cc2ccccc2C)cc1 | inconclusive: 31.6 µM [cytotoxic, single point] |  |
| CC1=C(c2ccc(C(C)C)cc2)S(=O)(=O)N=C1N1CCC(C(=O)Nc2ccc(C)cc2)CC1 |  | inactive: -25% |
| O=S(=O)(Nc1ccc(-c2ccc(N3CCCCC3)nn2)cc1)c1ccc(OC(F)(F)F)cc1 | inconclusive: 1.12 µM [cytotoxic, partial curve] |  |
| Cn1c(=O)n(C)c2cc(NS(=O)(=O)c3ccc(F)cc3)c(NCc3ccccc3)cc21 | inconclusive: 5.01 µM [cytotoxic, partial curve] |  |
| COCCCN(Cc1ccco1)C(=O)c1cc2c(s1)-c1ccccc1OC2 | inconclusive: 22.4 µM [cytotoxic, single point] |  |
| Cc1c(Cl)cccc1-n1ncc(C(=O)N2CCN(C)CC2)c1C1CCN(C(=O)OC(C)(C)C)CC1 | inconclusive: 7.94 µM [cytotoxic, partial curve] |  |
| CC(=O)OCc1cc(=O)n2nc(C3CCCCC3)sc2n1 |  | inactive: -21.4% |
| CCCOc1ccc(NC(=O)CC2C(=O)N(c3ccc(C)cc3)C(=O)N2C(C)C)cc1 (configuration not stated) |  | inactive: -16.3% |
| CCCN1CCN(CCCNC(=O)c2cc3c(Cl)nc4ccccc4c3s2)CC1 |  | inactive: -16.8% |
| CCCC(=O)Nc1ccc2c(c1)nc(CN1CCN(C(=O)OCC)CC1)n2C(C)C | inconclusive: 1.26 µM [cytotoxic, full curve] |  |
| CCCCC1CCC(C(=O)N2CC(=O)Nc3ccc(F)cc3C2c2ccc(F)cc2)CC1 (configuration not stated) | inconclusive: 35.5 µM [cytotoxic, single point] |  |
| CCOc1ccc(NC(=O)c2cc3sc(Cl)cc3n2CC)cc1 |  | inactive: 13.3% |
| O=C(c1c2c(nc3ccccc13)C(=O)N(C1CCCCC1)C2)N1CCN(c2ccc(F)cc2)CC1 |  | inactive: -20.1% |
| CC(=O)N1CCCc2cc(S(=O)(=O)N3CCC(C(=O)N(Cc4ccccc4)C(C)C)CC3)ccc21 |  | inactive: 11.8% |
| C#CC[N+](C)(C)CCCCCCCCCC |  | inactive: -12.8% |
| Cc1cccc2sc(N(Cc3cccnc3)C(=O)c3cccs3)nc12 | inconclusive: 0.0447 µM [cytotoxic, full curve, poor fit] |  |
| CC1CCCCC1NC(=O)CCn1c(=O)oc2ccccc21 (configuration not stated) |  | inactive: -2.73% |
| CCOC(=O)c1ccc(N2C(=O)c3n[nH]c(-c4ccco4)c3C2c2ccc(O)c(OCC)c2)cc1 (configuration not stated) |  | inactive: 26.8% |
| Cc1cccc(Nc2nnc(-c3ccc(C)c(S(=O)(=O)NCC4CCCO4)c3)c3ccccc23)c1 (configuration not stated) | inconclusive: 14.1 µM [cytotoxic, single point] |  |
| COc1ccc(OC)c(NC(=O)C2CCN(S(=O)(=O)c3ccc4c(c3)CCCC(=O)N4)CC2)c1 |  | inactive: 7.66% |
| C=Cc1ccc(Cn2nc(-c3ccc(C)cc3)ccc2=O)cc1 | inconclusive: 35.5 µM [cytotoxic, single point] |  |

| Structure (SMILES) | Potency | activity, negative = cell killing |
| --- | --- | --- |
| CCOc1ccc(-c2nc(SCC(=O)c3ccccc3)n[nH]2)cc1 | inconclusive: 12.6 µM [cytotoxic, partial curve] |  |
| CC(=O)c1ccc(NC(=O)CSc2ccc(-c3cccs3)nn2)cc1 | inconclusive: 10 µM [cytotoxic, partial curve] |  |
| Cc1nn(-c2ccccc2Cl)c(Cl)c1/C=N/Nc1cccc(C(=O)O)c1 | active: 14.1 µM |  |
| Cn1nc(-c2ccccc2F)c2cc(C(=O)NCCc3ccc(Cl)cc3)sc21 |  | inactive: 21.1% |
| O=C(Nc1cccc(Cl)c1)c1ccc2nc(CCc3ccccc3)oc2c1 | inconclusive: 0.316 µM [cytotoxic, full curve, poor fit] |  |
| CCCCN1C(=O)c2[nH]nc(-c3ccccc3O)c2C1c1ccc(C(C)(C)C)cc1 (configuration not stated) | inconclusive: 20 µM [cytotoxic, partial curve] |  |
| CCC1Oc2ccc(C)cc2N(CC(=O)NCc2ccc(OC)cc2)C1=O (configuration not stated) |  | inactive: -13.5% |
| Cc1cc(C(=O)NC2=NCCS2)cs1 | inconclusive: 10 µM [cytotoxic, partial curve, poor fit] |  |
| CC(C)Cn1cc(NC(=O)Nc2cccc(C(F)(F)F)c2)c2ccccc2c1=O |  | inactive: -8.54% |
| COc1ccc(-n2nc3c(N4CCCC(C(=O)NCc5ccc(C)cc5)C4)nnc(C)c3c2C)cc1 (configuration not stated) |  | inactive: 14.6% |
| COc1cccc(-c2nnc(-c3ccc(C)o3)o2)c1 | active: 12.6 µM |  |
| COc1ccc2c(Sc3ccccc3)c(C(=O)NCCCN3CCCCC3)[nH]c2c1 | inconclusive: 12.6 µM [cytotoxic, single point] |  |
| Cc1oc2ccc(O)c(CN3CCCCC3)c2c1C(=O)Nc1cccc(C(F)(F)F)c1 | inconclusive: 25.1 µM [cytotoxic, single point] |  |
| COc1cc(-c2noc(-c3ccc(NCc4ccco4)c([N+](=O)[O-])c3)n2)cc(OC)c1OC |  | inactive: -9.23% |
| CN(C)c1ccc(C2C=C(c3ccccc3)Nc3nnnn32)cc1 (configuration not stated) | active: 7.94 µM |  |
| CCc1ccc(OCc2nc(-c3ccc(OC)c(OC)c3)no2)c(Br)c1 | inconclusive: 0.126 µM [cytotoxic, full curve, poor fit] |  |
| COc1ccc(/C=C/C(=O)Nc2sc(C)c(C)c2C(=O)O)cc1 | active: 0.794 µM |  |
| CCOc1cc(CN2CCN(S(=O)(=O)c3ccc(C)cc3)CC2)ccc1OC |  | inactive: -8.4% |
| CCc1ccc(NC(=O)CN2C(=O)CCSc3ccccc32)cc1 |  | inactive: -20.6% |
| CN(Cc1ccc(F)cc1)S(=O)(=O)c1nnc(NC(=O)c2ccccc2Cl)s1 |  | inactive: -20.1% |
| Cc1cc2c(cc1C)NC(CC(=O)Nc1cccc(Cl)c1)C(=O)N2 (configuration not stated) | inconclusive: 15.8 µM [cytotoxic, single point] |  |
| COc1ccc(Cl)cc1NC(=O)c1nnn(Cc2cccc(C(F)(F)F)c2)c1N | inconclusive: 3.98 µM [cytotoxic, partial curve, poor fit] |  |
| COC(=O)NCC(c1cccnc1)N1CCN(c2ccccc2)CC1 (configuration not stated) |  | inactive: -1.35% |
